The record followed here is PubChem BioAssay (NCI).

Test systems include NCI-H522 lung; SK-MEL-28 melanoma; K-562 leukemia; MOLT-4 leukemia; NCI-H23 lung; SK-MEL-5 melanoma; SR leukemia; UACC-257 melanoma; HS 578T breast; MDA-MB-435.
Common to all, as to experiment: NCI-60 cell line screen, 48 h

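Step 1: Grow cells in 96-well plates. Step 2: Expose to compound for 48 hours at 5 concentrations. Step 3: Interpolate endpoints linearly; if unreached, use highest concentration. GI50 = concentration required for 50% inhibition of growth.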 Not every entry of the source has a single result; some have several. This is not the full list of results. There may be further records. For some assays here: A record mostly stands for its own series of concentrations, not given here; a value can be the end of its range. For some assays here: The values listed for one entry are repeated measurements across runs, samples, wells, individuals or studies. Marks in square brackets tell the records apart. A, B and so on number the origins entry by entry.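 The concentration for full growth arrest is given as TGI.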 Where a SMILES comes first, the peptide text is derived from it. [ ]: non-standard residue; d: D form. Aoe = N[C@@H](CCCCCC(=O)[C@@H]1CO1)C(=O)O

Consider `C=CC(=O)NCc1cccc(Nc2ncc(Br)c(NCCCNC(=O)C3CCC3)n2)c1`, for which, in the assay with NCI-H522 lung, the GI50 was 1.76 µM and 171 nM.
As for `CC1CCC2(C(=O)O)CCC3(C)C(=CCC4C5(C)CCC(O)C(C)(C)C5CCC43C)C2C1C` (stereo unspecified), the TGI in the assay on SK-MEL-28 melanoma is > 100 µM [sample A, 1 test] and 4.15 µM [sample B, mean of 5 tests].
In the case of `COc1ccc2[nH]cc([C@@H]3C4CCC(C4)[C@H]3NCc3cccc(CN[C@H]4C5CCC(C5)[C@@H]4c4c[nH]c5ccc(OC)cc45)c3)c2c1`, the TGI in the assay on K-562 leukemia is > 100 µM [sample A] and 433 nM [sample B].
On to `CCCC(=O)NC1CCc2cc(OC)c(OC)c(OC)c2-c2ccc(OC)c(=O)cc21` (stereo unspecified), for which the TGI with MOLT-4 leukemia was 437 nM and > 100 µM; with NCI-H23 lung it was 658 nM and > 100 µM; in the assay with SK-MEL-5 melanoma, 1.7 nM and > 100 µM; in the assay with SR leukemia, 630 nM and > 100 µM.
Turning to `CC1=CC(=C(c2ccc(N)cc2)c2ccc(N)cc2)C=CC1=N`, in the assay on K-562 leukemia, the TGI was 5.23 µM [sample A] and > 100 µM [sample B].
Consider `O=C1N[C@@H](Cc2ccccc2)C(=O)N2CCC[C@@H]2C(=O)N[C@@H](CCCCCC(=O)[C@@H]2CO2)C(=O)N[C@H]1Cc1ccccc1` (cyclo(FF[dP][Aoe])), for which the TGI in the assay on UACC-257 melanoma is 378 nM and 18.9 nM.
Take `CC1(C)CCC2=C(O1)c1ccccc1C(=O)C2=O`: in the assay with HS 578T breast, the GI50 is 233 nM [sample A, 1 test] and 2.41 µM [sample B, 1 test]. The TGI in the assay with MDA-MB-435 was 4.75 µM [sample A] and 355 nM [sample B].
